Measurements published in the supplement of paper PMC11741623.
Some of the results follow. Interaction screen of human proteins with wild-type SARS-CoV-2 proteins by split-DHFR complementation in yeast, 1 µg/mL methotrexate. Value = fitness of the pair (three or more lineages) minus that of the viral protein without a human partner, on a scale set by negative (0) and fused positive (1) controls, mean of up to three cultures; higher = more likely to interact. Active = false discovery rate below 0.05 (one-sided t-test) in at least one culture. Nearly all pairs are not hits, and differences among them are mostly noise (correlation between cultures about 0.3); most hits were seen in one culture only. Human sequences are the Swiss-Prot entries looked up by gene name; the clone may be another isoform. NSP2 values were corrected by the authors for a growth advantage. Listed are human proteins with a hit and a random twelfth of the others.

B1: ORMDL3, Q8N138 (protein)
chain: MNVGTAHSEVNPNTRVMNSRGIWLSYVLAIGLLHIVLLSIPFVSVPVVWTLTNLIHNMGMYIFLHTVKGTPFETPDQGKARLLTHWEQMDYGVQFTASRKFLTITPIVLYFLTSFYTKYDQIHFVLNTVSLMSVLIPKLPQLHGVRIFGINKY
B2: ANKRD33, Q7Z3H0 (protein)
chain: MKVQPSVTCVASWGGIVHLEAFGDPVIVLRGAWAVPRVDCLIDTLRTPNASCMRKGTHLLVPCLEEEELALHRRRLDMSEALPCPGKETPTPGCRLGALYWACVHNDPTQLQAILDGGVSPEEATQVDSNGRTGLMVACYHGFQSVVALLSHCPFLDVNQQDKGGDTALMLAAQAGHVPLVSLLLNYYVGLDLERRDQRGLTALMKAAMRNRCADLTAVDPVRGKTALEWAVLTDSFDTVWRIRQLLRRPQVEQLSQHYKPEWPALSGLVAQAQAQAQVAPSLLERLQATLSLPFAPSPQEGGVLDHLVTATTSLASPFVTTACHTLCPDHPPSLGTRSKSVPELLGTAPPPPLVPQSPPGSPQRSPWVFVPYQSPQGILSKCLQWLQPRDSTSPRPQVPKILLSKASSSSHQCQPKPSPSGHQSLALPLWRYQELRIEKRKQEEEARMAQK

How the values were obtained:
Test in all cases: yeast fitness gain over the viral ORF with no human partner (scaled fitness); higher = more likely to interact
SARS-CoV-2 E = molecular target: SARS-CoV-2 E
Description: (§1)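 Split mouse DHFR complementation in pooled diploid yeast: human ORFeome clones carry one fragment and viral ORFs the other; barcoded lineages compete in 1 µg/mL methotrexate and fitness is read by barcode sequencing in up to three cultures.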

SARS-CoV-2 M = molecular target: SARS-CoV-2 M
Description: as §1

SARS-CoV-2 N = molecular target: SARS-CoV-2 N
Description: as §1

SARS-CoV-2 NSP1 = molecular target: SARS-CoV-2 NSP1
Description: as §1

SARS-CoV-2 NSP10 = molecular target: SARS-CoV-2 NSP10
Description: as §1

SARS-CoV-2 NSP12 = molecular target: SARS-CoV-2 NSP12
Description: as §1

SARS-CoV-2 NSP13 = molecular target: SARS-CoV-2 NSP13
Description: as §1

SARS-CoV-2 NSP14 = molecular target: SARS-CoV-2 NSP14
Description: as §1

SARS-CoV-2 NSP15 = molecular target: SARS-CoV-2 NSP15
Description: as §1

SARS-CoV-2 NSP16 = molecular target: SARS-CoV-2 NSP16
Description: as §1

SARS-CoV-2 NSP2 = molecular target: SARS-CoV-2 NSP2
Description: as §1

SARS-CoV-2 NSP4 = molecular target: SARS-CoV-2 NSP4
Description: as §1

SARS-CoV-2 NSP5 = molecular target: SARS-CoV-2 NSP5
Description: as §1

SARS-CoV-2 NSP6 = molecular target: SARS-CoV-2 NSP6
Description: as §1

SARS-CoV-2 NSP7 = molecular target: SARS-CoV-2 NSP7
Description: as §1

SARS-CoV-2 NSP8 = molecular target: SARS-CoV-2 NSP8
Description: as §1

SARS-CoV-2 NSP9 = molecular target: SARS-CoV-2 NSP9
Description: as §1

SARS-CoV-2 ORF10 = molecular target: SARS-CoV-2 ORF10
Description: as §1

SARS-CoV-2 ORF3A = molecular target: SARS-CoV-2 ORF3A
Description: as §1

SARS-CoV-2 ORF3B = molecular target: SARS-CoV-2 ORF3B
Description: as §1

SARS-CoV-2 ORF6 = molecular target: SARS-CoV-2 ORF6
Description: as §1

SARS-CoV-2 ORF7A = molecular target: SARS-CoV-2 ORF7A
Description: as §1

SARS-CoV-2 ORF7B = molecular target: SARS-CoV-2 ORF7B
Description: as §1

SARS-CoV-2 ORF8 = molecular target: SARS-CoV-2 ORF8
Description: as §1

SARS-CoV-2 ORF9B = molecular target: SARS-CoV-2 ORF9B
Description: as §1

[1] = molecular target: SARS-CoV-2 ORF9Bwu (the 73-codon ORF)
Description: as §1

SARS-CoV-2 S = molecular target: SARS-CoV-2 S
Description: as §1

| Binder | yeast fitness gain (SARS-CoV-2 E) | yeast fitness gain (SARS-CoV-2 M) | yeast fitness gain (SARS-CoV-2 N) | yeast fitness gain (SARS-CoV-2 NSP1) | yeast fitness gain (SARS-CoV-2 NSP10) | yeast fitness gain (SARS-CoV-2 NSP12) | yeast fitness gain (SARS-CoV-2 NSP13) | yeast fitness gain (SARS-CoV-2 NSP14) | yeast fitness gain (SARS-CoV-2 NSP15) | yeast fitness gain (SARS-CoV-2 NSP16) | yeast fitness gain (SARS-CoV-2 NSP2) | yeast fitness gain (SARS-CoV-2 NSP4) | yeast fitness gain (SARS-CoV-2 NSP5) | yeast fitness gain (SARS-CoV-2 NSP6) | yeast fitness gain (SARS-CoV-2 NSP7) | yeast fitness gain (SARS-CoV-2 NSP8) | yeast fitness gain (SARS-CoV-2 NSP9) | yeast fitness gain (SARS-CoV-2 ORF10) | yeast fitness gain (SARS-CoV-2 ORF3A) | yeast fitness gain (SARS-CoV-2 ORF3B) | yeast fitness gain (SARS-CoV-2 ORF6) | yeast fitness gain (SARS-CoV-2 ORF7A) | yeast fitness gain (SARS-CoV-2 ORF7B) | yeast fitness gain (SARS-CoV-2 ORF8) | yeast fitness gain (SARS-CoV-2 ORF9B) | yeast fitness gain [1] | yeast fitness gain (SARS-CoV-2 S) |
| --- | --- | --- | --- | --- | --- | --- | --- | --- | --- | --- | --- | --- | --- | --- | --- | --- | --- | --- | --- | --- | --- | --- | --- | --- | --- | --- | --- |
| B1 | inactive: -0.0316 | inactive: 0.0713 | inactive: -0.0633 | inactive: 0.0759 | inactive: 0.0304 | inactive: -0.0699 | inactive: 0.00749 | inactive: 0.0879 | inactive: -0.0588 | inactive: 0.0121 | inactive: -0.109 | inactive: 0.3 | inactive: 0.0462 | inactive: 0.0831 | inactive: 0.0215 | inactive: 0.0249 | inactive: 0.0625 | inactive: 0.0209 | inactive: -0.0138 | inactive: 0.0208 | inactive: -0.0049 | inactive: 0.234 | active: 0.399 | inactive: 0.028 | inactive: -0.0078 | inactive: 0.0981 | inactive: -0.00362 |
| B2 | inactive: -0.0746 | inactive: 0.0519 | inactive: 0.0201 | inactive: 0.059 | inactive: -0.0558 | inactive: -0.115 | inactive: 0.0116 |  | inactive: -0.0833 | inactive: -0.0333 | inactive: -0.0743 | inactive: 0.0168 | inactive: -0.00863 | inactive: 0.0539 | inactive: 0.0115 | inactive: -0.0387 | inactive: 0.154 | inactive: 0.0315 | inactive: -0.00609 | inactive: 0.0447 | inactive: -0.00267 | inactive: 0.0219 | inactive: 0.0302 | inactive: -0.00179 | inactive: 0.0185 | inactive: 0.00431 | inactive: -0.0519 |
